# Data published in the RNAGym collection of RNA variant scans (doi:10.1073/pnas.2313332121).
# Variants at the floor of the assay are shown more often than the library holds them.
# B1: TPR 5TU (parent)
# chain: GGAUCUUCUCGAUCUAACAAAAAAGACAAAUCUGCCACAAAGCUUGAGAGCAUCUUCGGAUGCAGAGGCGGCAGCCUUCGGUGGCGCGAUAGCGCCAACGUUCUCAACUAUGACACGCAAAACGCGUGCUCCGUUGAAUGGAGUUUAUCAUG
# Variants of: B1
# Test: polymerase ribozyme fitness, log enrichment relative to wild type (log ratio); higher = more active; in vitro selection for triplet polymerase activity
# Procedure, shortened: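 Each subunit of a heterodimeric triplet polymerase ribozyme was mutagenized into a library by PCR, transcribed, and subjected to one round of in vitro selection, run in triplicate. Libraries were annealed with a biotinylated primer, the partner subunit and triplets, incubated frozen at −7 °C, and extended constructs were gel-excised, captured on streptavidin beads and recovered by RT-PCR. Input and output libraries were sequenced on Illumina, keeping genotypes with ≥10 input reads and ≥1 read per output. Fitness is log base 2 of genotype enrichment divided by wild-type enrichment, from inverse-variance-weighted replicate averages.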
row,Variant,polymerase ribozyme fitness (log ratio)
1,C14U A26U A29G C32U A60G A98G,≤ -4.2
2,C14U A28U A52G G59A C93U A113U A147G,≤ -4.2
3,C14U A29C U109C,≤ -4.2
4,C14U A29U G71A G88C C93A,≤ -4.2
5,C14U A29U U55G G81C G83A A115U,≤ -4.2
6,C14U A29U U56A G65U U77G C87A C99G G124C,≤ -4.2
7,C14U A30G G48A C76G A98U U102G C118G,≤ -4.2
8,C14U A37C U56A A73C G74U A91C C116A A119C,≤ -4.2
9,C14U A39U G84U A91U C123A,≤ -4.2
10,C14U A40G G58C G59C G68C G80A G94A,≤ -4.2
11,C14U A40G U53G C75A A91U G141U,≤ -4.2
12,C14U A40G U56A G59C C76U A121U,-4.02
13,C14U A41C A66G C76U G84C C114U C125A,≤ -4.2
14,C14U A41C C75G G84U C118A,≤ -4.2
15,C14U A41G G68A A73G,≤ -4.2
16,C14U A47C C51U G58C A66U C95A C131G,≤ -4.2
17,C14U A47C G84A,-2.49
18,C14U A49C A91C,≤ -4.2
19,C14U A52C G83C G100A U139C,≤ -4.2
20,C14U A52C U56A A97U A98U,-4.07
21,C14U A91U G128C U130G U145A,≤ -4.2
22,C14U A122G,-1.71
23,C14U C18G C32G A66C C93U A98U,≤ -4.2
24,C14U C18G U104G C108G A115G U144G A147U,≤ -4.2

row,Variant,polymerase ribozyme fitness (log ratio)
1,C14U C32A A37C G62A C85A A107C A147C,≤ -4.2
2,C14U C35G G50U U55A C85G A98U A106G,≤ -4.2
3,C14U C51U G70A C116A C129U,≤ -4.2
4,C14U C54G C93A C95G A150G,≤ -4.2
5,C14U C54U C57U C72U G83A,-4.05
6,C14U C57G C85U G152A,-3.89
7,C14U C76U C87A C95U U101C,≤ -4.2
8,C14U C85A C103G C114A,≤ -4.2
9,C14U C85U,-1.65
10,C14U C87G A97U G100C,≤ -4.2
11,C14U C93A,-3.4
12,C14U C93A A97G,≤ -4.2
13,C14U G42C U53G C85G,≤ -4.2
14,C14U G46A A49U C76G A121G C131G,≤ -4.2
15,C14U G50C,-3.52
16,C14U G59C C93U A122G A137C U146G,≤ -4.2
17,C14U G68U G124C U145G,≤ -4.2
18,C14U G81U C93A A119G,≤ -4.2
19,C14U G86A C103G,≤ -4.2
20,C14U G88C,≤ -4.2
21,C14U G88U,≤ -4.2
22,C14U G92A C103G,≤ -4.2
23,C14U G94A,-1.85
24,C14U U15A A17C A30G C76A G86A A91U C95G A113G,≤ -4.2

row,Variant,polymerase ribozyme fitness (log ratio)
1,C14U U15A C32U C38U U56A G58A C69A C76A A98U U151C,≤ -4.2
2,C14U U15G A49G G62A G83A A137G U148G,≤ -4.2
3,C14U U31A G83A A91C G117A,≤ -4.2
4,C14U U45A A91U U127G,≤ -4.2
5,C14U U55A A73U G94C A115G,≤ -4.2
6,C14U U55A C75U C76U,≤ -4.2
7,C14U U56A C63U A66C G126U,≤ -4.2
8,U15A A16G G58U C69G C85U A89U C96U C108U,≤ -4.2
9,U15A A19U G92C C125U A138C,≤ -4.2
10,U15A A20U U33A A60C C85G,≤ -4.2
11,U15A A21C A73G C95U U135G A138G U139C,≤ -4.2
12,U15A A26U A49C G50A G83C C99U C116U,≤ -4.2
13,U15A A28C G42A C85A A91U C95U A107G C114U G143U,≤ -4.2
14,U15A A37G A106U U148A,≤ -4.2
15,U15A A47C G48C G58C C125U G140A,≤ -4.2
16,U15A A52C G65A G117A G133U,≤ -4.2
17,U15A A60G G80U C96U A122C,-1.4
18,U15A C35U U55A C96G A107U U135C,≤ -4.2
19,U15A C43G C63U C85U U102A A107U U130G U135G A138C,≤ -4.2
20,U15A C51U G86U,-1.69
21,U15A C54A A91U A150C,≤ -4.2
22,U15A C57A C76U G84C,-1.52
23,U15A C57U G92A A115U,≤ -4.2
24,U15A C75G U78G C87A C95A U139G,≤ -4.2

row,Variant,polymerase ribozyme fitness (log ratio)
1,U15A G34C U55C U77A C93G C108U,≤ -4.2
2,U15A G50U C95U C99G C105U A115G A150C,≤ -4.2
3,U15A G65A A66C A73G U127G U130C A147U,≤ -4.2
4,U15A G74U C79G,≤ -4.2
5,U15A G74U C99U C123A,≤ -4.2
6,U15A G94A,-0.258
7,U15A U44A U56A A64C A73G C76A C93U A107G U151A,≤ -4.2
8,U15A U45C C85A U90C C95U A119U,≤ -4.2
9,U15A U145C,0.0727
10,U15C A16C C85U C118A,-2.79
11,U15C A16U U101G A122U A137U G143C,≤ -4.2
12,U15C A17C A26G C57A G59C G94U C118U,≤ -4.2
13,U15C A19C A91U,-3.68
14,U15C A21C G48C C93U U146G,-0.835
15,U15C A21C U56C G83A,-0.11
16,U15C A22C C85U U127C,-2
17,U15C A23C A30G A47G A60G G86C G88U U101G,≤ -4.2
18,U15C A28C A39G G65U U82C U130A,≤ -4.2
19,U15C A37G C99G C118A C149G,≤ -4.2
20,U15C A40C C93A C95U C116A A121U,-1.18
21,U15C A40U U53A G84C,-1.96
22,U15C A41C G42A A47G C93U A110U G112U,≤ -4.2
23,U15C A49G C85U U109G,-0.987
24,U15C A52G A66G C79U C96G,≤ -4.2

row,Variant,polymerase ribozyme fitness (log ratio)
1,U15C A66C C96U,≤ -4.2
2,U15C C27G U33A C75G G88A G136C,≤ -4.2
3,U15C C35G A39U A73G G83C G100A A107G C125A G141U,≤ -4.2
4,U15C C54A G59A G84U A106G U146G,-2.98
5,U15C C57G U82G G94A,0.771
6,U15C C76A U78A C103G A122G,≤ -4.2
7,U15C G42A A60G,≤ -4.2
8,U15C G50A C57G G71C G117C,≤ -4.2
9,U15C G65C A137C C149U U151G,≤ -4.2
10,U15C G68C G84C C93A C99A G126U A142G,≤ -4.2
11,U15C G80C C93G C116G,-4.05
12,U15C G84C C125U U134G A150U,≤ -4.2
13,U15C U33C A39U G59U G80U A120C,≤ -4.2
14,U15C U53C G59U A64G C99G C125G A137C,≤ -4.2
15,U15C U78A U90A A106C,≤ -4.2
16,U15G A16U A41C A52C G81C G83U A106U U127A,≤ -4.2
17,U15G A16U U55A A64U G92A C103U C116G G117C G141C,≤ -4.2
18,U15G A17C A40C,0.895
19,U15G A17C C27G C51A G59A C75U C87U,≤ -4.2
20,U15G A17G C38A G62C G81A C85G,≤ -4.2
21,U15G A17U A22U C87A A147C,≤ -4.2
22,U15G A20G C54G G68C C85U C105A C114A A137U,≤ -4.2
23,U15G A20U C43A A97C U144A,≤ -4.2
24,U15G A20U C51U C95G C123G C132G,≤ -4.2

row,Variant,polymerase ribozyme fitness (log ratio)
1,U15G A21U C85U A121U A138G,-4.04
2,U15G A22G U44C A73G G74U G80C U148A,≤ -4.2
3,U15G A22U U53A A121C A147C,0.0126
4,U15G A23C A39C C76A C123U U134G,≤ -4.2
5,U15G A23C G92C,≤ -4.2
6,U15G A26U A52G G83A U102G,≤ -4.2
7,U15G A28G C79A G124U,≤ -4.2
8,U15G A29G C76G G84C C96U C99U A120U,≤ -4.2
9,U15G A29G G59C G84U C85A U90C C93G A115G G133U U151G,≤ -4.2
10,U15G A29U A49C C76A G84U U104G,≤ -4.2
11,U15G A30C G42U U56G C69A C123U G141U,≤ -4.2
12,U15G A30U A52C C87G,≤ -4.2
13,U15G A30U U44A A49G C54A C76U G88A A110G,≤ -4.2
14,U15G A37G A49U U82G C85G G92A C99A A138U C149G U151G,≤ -4.2
15,U15G A40U U56C C57A G94A C125G G140U,≤ -4.2
16,U15G A41C A47C U55G C76A G81C C87G C96A G126U,≤ -4.2
17,U15G A47C G83C,-1.85
18,U15G A49C C51G G92A C95U C105U,≤ -4.2
19,U15G A49C G65C A120C A142C,≤ -4.2
20,U15G A52C U55G A66C C85G C131G U134A,≤ -4.2
21,U15G A60G C87G C103G A147C,≤ -4.2
22,U15G C18U U56C G83A C87U,-1.58
23,U15G C27U C54A U56A C72U G80A G81U U90C G92U,≤ -4.2
24,U15G C32A G42U G83U,≤ -4.2

row,Variant,polymerase ribozyme fitness (log ratio)
1,U15G C32A G70C G83C A107G C129U U139G,≤ -4.2
2,U15G C35G G59U C93G A142G,≤ -4.2
3,U15G C43A G58C G71A C96A U127A,≤ -4.2
4,U15G C51A C93A G124U U145A,-3.28
5,U15G C57A G86U A122G,-1.4
6,U15G C87A,≤ -4.2
7,U15G C96U,-1.19
8,U15G C132A,-2.26
9,U15G G25U U33C A66G C76G G81C C87U,≤ -4.2
10,U15G G42A G83U G100C,≤ -4.2
11,U15G G42U G88C,≤ -4.2
12,U15G G48A A73C G92C U111A C118G A138U,≤ -4.2
13,U15G G50C C95A C99U A120U,≤ -4.2
14,U15G G50U U61A C93G C105U A107G,≤ -4.2
15,U15G G71A C93U,≤ -4.2
16,U15G G71C C79A C93U A138U,≤ -4.2
17,U15G G81A A91C C93U A110G,≤ -4.2
18,U15G G84A C96A A119U,-2.08
19,U15G U55G G71C C85U A142U C149U,≤ -4.2
20,U15G U77A U78G G88U C149G,≤ -4.2
21,U15G U82C G94A,-1.01
22,A16C A17C A26U A91U G128C A137C U148G C149G,≤ -4.2
23,A16C A17G C57U G86A G133U,≤ -4.2
